Consider four molecules from article PMC8224564.

Protein sequences, listed by entry. Tags and fused reporters are not part of them. Lines headed by an entry give the natural chain unless they say otherwise; changes in a name come on top. Residues count along the entry.
UniProt Q8VIM0, residues 20-281: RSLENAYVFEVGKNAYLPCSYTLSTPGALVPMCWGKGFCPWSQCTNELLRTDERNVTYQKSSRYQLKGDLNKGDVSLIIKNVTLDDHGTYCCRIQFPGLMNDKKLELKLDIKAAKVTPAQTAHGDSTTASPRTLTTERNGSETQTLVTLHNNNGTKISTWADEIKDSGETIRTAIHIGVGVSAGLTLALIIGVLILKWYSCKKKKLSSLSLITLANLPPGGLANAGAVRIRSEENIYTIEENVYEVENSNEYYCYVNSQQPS
UniProt P29317: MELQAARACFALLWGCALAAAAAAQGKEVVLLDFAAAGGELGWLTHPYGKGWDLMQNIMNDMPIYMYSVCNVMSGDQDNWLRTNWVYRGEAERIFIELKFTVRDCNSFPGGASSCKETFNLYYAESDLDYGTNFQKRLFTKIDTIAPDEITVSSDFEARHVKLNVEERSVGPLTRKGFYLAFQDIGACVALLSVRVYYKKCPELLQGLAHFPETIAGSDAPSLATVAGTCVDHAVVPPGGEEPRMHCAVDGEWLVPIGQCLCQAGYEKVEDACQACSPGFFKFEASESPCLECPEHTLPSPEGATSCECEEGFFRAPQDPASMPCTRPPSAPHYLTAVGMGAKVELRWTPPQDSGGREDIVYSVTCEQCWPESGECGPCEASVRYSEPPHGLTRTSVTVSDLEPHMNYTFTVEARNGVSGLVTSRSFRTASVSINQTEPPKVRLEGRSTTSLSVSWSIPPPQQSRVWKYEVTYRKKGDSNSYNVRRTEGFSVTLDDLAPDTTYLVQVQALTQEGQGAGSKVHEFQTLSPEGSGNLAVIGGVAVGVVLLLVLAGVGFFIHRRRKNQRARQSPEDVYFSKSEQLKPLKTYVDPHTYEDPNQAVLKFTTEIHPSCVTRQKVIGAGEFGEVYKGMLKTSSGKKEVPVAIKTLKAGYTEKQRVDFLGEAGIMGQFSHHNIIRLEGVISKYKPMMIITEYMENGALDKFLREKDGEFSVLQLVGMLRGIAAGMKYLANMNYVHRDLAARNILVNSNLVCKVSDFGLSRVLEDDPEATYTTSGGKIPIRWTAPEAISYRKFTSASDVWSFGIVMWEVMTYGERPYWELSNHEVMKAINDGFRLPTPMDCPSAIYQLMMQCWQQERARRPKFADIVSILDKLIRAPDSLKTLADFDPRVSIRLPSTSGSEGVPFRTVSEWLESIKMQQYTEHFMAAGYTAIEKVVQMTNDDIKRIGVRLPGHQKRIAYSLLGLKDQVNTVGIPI
EphA2^ECR: residues 24-537 of P29317
UniProt Q03145, residues 26-977: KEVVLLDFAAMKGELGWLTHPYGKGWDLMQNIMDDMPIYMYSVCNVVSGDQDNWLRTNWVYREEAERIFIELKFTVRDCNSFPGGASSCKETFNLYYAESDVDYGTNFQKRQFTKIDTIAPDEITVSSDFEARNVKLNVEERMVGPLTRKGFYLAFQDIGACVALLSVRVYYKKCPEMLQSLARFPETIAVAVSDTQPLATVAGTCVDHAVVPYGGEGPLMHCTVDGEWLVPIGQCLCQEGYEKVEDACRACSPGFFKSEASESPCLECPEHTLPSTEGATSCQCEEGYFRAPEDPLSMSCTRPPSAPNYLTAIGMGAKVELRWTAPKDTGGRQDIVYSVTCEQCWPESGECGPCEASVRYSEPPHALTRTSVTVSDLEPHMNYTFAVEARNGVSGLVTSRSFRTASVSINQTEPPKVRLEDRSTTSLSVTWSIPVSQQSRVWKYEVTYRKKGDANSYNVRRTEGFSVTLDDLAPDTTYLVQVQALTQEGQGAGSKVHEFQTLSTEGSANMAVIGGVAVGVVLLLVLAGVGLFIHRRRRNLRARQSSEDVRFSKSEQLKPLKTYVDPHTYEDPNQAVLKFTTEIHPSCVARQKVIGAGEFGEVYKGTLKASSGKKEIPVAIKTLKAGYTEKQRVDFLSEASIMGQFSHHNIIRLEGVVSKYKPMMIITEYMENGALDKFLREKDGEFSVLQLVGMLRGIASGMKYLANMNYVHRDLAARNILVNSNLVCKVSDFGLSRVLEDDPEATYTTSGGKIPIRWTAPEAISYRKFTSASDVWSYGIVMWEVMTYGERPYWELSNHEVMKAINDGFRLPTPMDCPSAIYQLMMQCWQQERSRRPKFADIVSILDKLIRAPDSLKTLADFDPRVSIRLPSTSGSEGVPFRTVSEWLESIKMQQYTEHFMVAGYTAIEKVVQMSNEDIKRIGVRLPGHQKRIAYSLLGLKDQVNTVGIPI

No constants are given. Whether binding was seen depends on the method and setting. In cells and extracts the contact can be indirect. Some results given as binding are weak or reduced against the parent protein; the word gives no strength. For some of these results: Tags and fused reporters may be left off the sequences shown.

For test [1], the target named is T1, HA-tagged Tim-4 (UniProt Q6U7R4).
T1 sequence: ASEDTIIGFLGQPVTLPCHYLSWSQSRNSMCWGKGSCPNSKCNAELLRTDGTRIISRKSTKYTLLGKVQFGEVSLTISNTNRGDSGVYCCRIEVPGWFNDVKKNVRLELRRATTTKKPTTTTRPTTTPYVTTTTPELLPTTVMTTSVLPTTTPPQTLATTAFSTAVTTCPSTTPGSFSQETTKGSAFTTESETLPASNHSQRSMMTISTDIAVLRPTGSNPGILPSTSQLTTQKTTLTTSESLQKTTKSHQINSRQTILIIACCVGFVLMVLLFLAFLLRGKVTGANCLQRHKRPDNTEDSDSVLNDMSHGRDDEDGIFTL
Briefly: co-IP; 293T cells co-transfected, lysates incubated with anti-HA antibody-conjugated agarose beads, 4 °C, 2 h; immunoblot. (In general: Immunoblotting shows a protein as a band on a membrane.)

Another test has as its target T2, Tim-1 (UniProt Q5QNS5).
T2 sequence: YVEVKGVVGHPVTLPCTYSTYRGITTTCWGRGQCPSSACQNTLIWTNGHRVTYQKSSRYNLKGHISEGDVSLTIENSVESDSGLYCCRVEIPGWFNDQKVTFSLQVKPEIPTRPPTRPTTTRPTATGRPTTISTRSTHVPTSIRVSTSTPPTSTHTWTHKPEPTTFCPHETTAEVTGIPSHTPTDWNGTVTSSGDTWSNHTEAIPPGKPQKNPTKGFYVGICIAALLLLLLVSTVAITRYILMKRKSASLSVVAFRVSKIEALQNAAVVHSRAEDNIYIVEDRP
The description is as above.

For the next test, the target named is Tim-3 (UniProt Q8VIM0). The test is described as above.
Test [2] has as its target T1, HA-tagged Tim-4. Kind of test: proximity ligation; LR73 cells transfected, fixed with 4% paraformaldehyde; Duolink PLA with anti-HA and anti-Myc (methods) or anti-EphA2 antibodies; confocal microscopy.
Another test concerns the target EphA2^ECR (UniProt P29317). Briefly: pull-down; 293T cells co-transfected, lysates incubated with glutathione agarose beads to precipitate the GST-tagged protein; immunoblot.
Test [3] has as its target EphA2 (endogenous, mouse lymph node) (mouse (endogenous in lymph nodes)) (UniProt Q03145). Briefly: co-IP; endogenous proteins; lysate of mouse lymph node cells, anti-EphA2 antibody and protein A/G agarose beads; immunoblot.

On to “EphA2 (from UniProt P29317 24-976) (receptor)”, for which the binding result is “binds” in the test with HA-tagged Tim-4 [1], “binds” in the test with Tim-1, “no binding” in the test with Tim-3 and “binds” in the test with HA-tagged Tim-4 [2].

B1: the extracellular region of Tim-4 (domain or fragment, UniProt Q6U7R4 23-279)
chain: ASEDTIIGFLGQPVTLPCHYLSWSQSRNSMCWGKGSCPNSKCNAELLRTDGTRIISRKSTKYTLLGKVQFGEVSLTISNTNRGDSGVYCCRIEVPGWFNDVKKNVRLELRRATTTKKPTTTTRPTTTPYVTTTTPELLPTTVMTTSVLPTTTPPQTLATTAFSTAVTTCPSTTPGSFSQETTKGSAFTTESETLPASNHSQRSMMTISTDIAVLRPTGSNPGILPSTSQLTTQKTTLTTSESLQKTTKSHQINSRQT
As for B1, the binding entry with EphA2^ECR was “binds”.

B2: Tim-4 (endogenous, mouse lymph node) (receptor, UniProt Q6U7R4 23-343)
chain: ASEDTIIGFLGQPVTLPCHYLSWSQSRNSMCWGKGSCPNSKCNAELLRTDGTRIISRKSTKYTLLGKVQFGEVSLTISNTNRGDSGVYCCRIEVPGWFNDVKKNVRLELRRATTTKKPTTTTRPTTTPYVTTTTPELLPTTVMTTSVLPTTTPPQTLATTAFSTAVTTCPSTTPGSFSQETTKGSAFTTESETLPASNHSQRSMMTISTDIAVLRPTGSNPGILPSTSQLTTQKTTLTTSESLQKTTKSHQINSRQTILIIACCVGFVLMVLLFLAFLLRGKVTGANCLQRHKRPDNTEDSDSVLNDMSHGRDDEDGIFTL
For B2, the binding result in test [3] is “binds”.

B3: Cdon (receptor, UniProt Q32MD9 25-1250)
chain: DLAPYFISEPLSAVQKLGRPVVLHCSAKPVTARISWLHNGKRLDRNTEQIKIHRGTLTILSLNPSLSGCYQCVANNSVGAVVSGPATVSAAALGDFDSSTMHVITAEEKNTGFIGCRVPESNPKAEVRYKIRGKWLKHSTGNYIILPSGNLQVLNVSSKDKGSYKCAAYNPVTSELKVEPTGRKLLVSRPSSNGFHILHPALSQALAVLPHSPVTLECVVSGVPASQVYWLKDGQDAVAGSNWRRLYSHLATASIDPADSGNYSCVVGNKSGDVKHVTYMVNVLEHASISKGLHDQKVSLGATVHFTCDVHGNPAPNRTWFHNAQPIHPSSRHLTEGNVLKITRVVMEDSGLYQCVADNGIGFMQSTGRLQIEQDSGWKPVIVTAPANIEVMDGDFVTLSCNATGVPVPVIHWYGRHGLITSHPSQVLRSKPRKSHLFRPGDLDLEPVYLIMSQAGSSSLSIQAVTLEHAGKYTCEATNKHGSTQSEAFLTVVPFETNTKAESVTPSEASQNDERDPQDGSESSLLNLFPVKVHPSGVELPAERNASVPDAPNILSPPQTHMPDTYNLVWRAGRDGGMPINAYFVKYRKLDDGSGAVGSWHTVRVPGSENELHLTELEPSSLYEVLMVARSAVGEGQPAMLTFRTSKEKMASSKNTQASFPPVGVPKRPVTAEASNSNFGVVLTDSSRHSGVPEAPDRPTISMASETSVYVTWIPRANGGSPITAFKVEYKRMRTSDWLVAAEDIPPSKLSVEVRSLEPGSIYKFRVIAINHYGESFRSSASRPYQVAGFPNRFSNRPITGPHIAYTEAVSDTQIMLKWTYVPSSNNNTPIQGFYIYYRPTDSDNDSDYKRDVVEGSKQWHTIGHLQPETSYDIKMQCFNEGGESEFSNVMICETKVKRVPGASDYPVKELSTPPSSSGNAGNVGPATSPARSSDMLYLIVGCVLGVMVLILMVFIALCLWKSRQQSTIQKYDPPGYLYQGSEINGQMVEYTTLSGAARINGSVHGGFLSNGCSHLHHKGPSGVNGTLSGNINGGLYSAHTNSLTRACVEFEHPHHLVNSGGVYTAVPQMDPLECINCRNCRNNNRCFTKTNSPLPVVPVVASYPQGGLEMKPLNAMKVPVCPASTVPDHGQLPDDCVKDSVAPIPTQHTCCQDNISDINSDSTEDTAEFSRGDSSGHSEAEDKVFSWNPLILSPVLEDCGEKTARSPPGPPLDGLSVVLQQAQET
With B3, the binding entry with HA-tagged Tim-4 [1] was “no binding”.
